Among the data in PubChem BioAssay AID493035 (The Scripps Research Institute Molecular Screening Center, 2011) are inhibition values, retold here.

Out of some 2,000 compounds screened, about 45 (2%) were called active.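 Rule for the calls: active = inhibition above the mean of all tested compounds plus 3 SD (cut at about 49% in these data); inactive = the rest.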 Some of the results follow.

The test concerns the target Perilipin-5 (Homo sapiens) + 1-acylglycerol-3-phosphate O-acyltransferase ABHD5 (Homo sapiens) (UniProt Q00G26+Q8WTS1). The test can be described thus: blockers of ABHD5 binding to perilipin-5 – cell lysate, split luciferase complementation, luminescence, NIH validation set, pilot screen (AID 493035).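 Note: 0% = DMSO only wells while the 100% control is not stated.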 The following applies: split G. princeps luciferase complementation, lysates, 4 h; at 7.9 µM, active compounds read high.
UniProt Q00G26, sequence (Q00G26 whole entry, looked up): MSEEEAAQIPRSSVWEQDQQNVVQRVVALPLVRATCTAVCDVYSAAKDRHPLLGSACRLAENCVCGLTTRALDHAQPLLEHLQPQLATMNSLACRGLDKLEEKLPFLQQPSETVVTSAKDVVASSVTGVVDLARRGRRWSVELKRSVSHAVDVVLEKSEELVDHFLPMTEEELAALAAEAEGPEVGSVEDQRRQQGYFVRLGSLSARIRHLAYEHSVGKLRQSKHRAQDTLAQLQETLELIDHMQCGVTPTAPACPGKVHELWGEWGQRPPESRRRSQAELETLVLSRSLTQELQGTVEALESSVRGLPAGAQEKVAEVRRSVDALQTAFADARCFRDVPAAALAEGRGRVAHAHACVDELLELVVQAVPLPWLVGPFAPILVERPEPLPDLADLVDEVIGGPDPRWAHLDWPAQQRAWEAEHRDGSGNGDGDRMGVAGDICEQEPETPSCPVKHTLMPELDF
UniProt Q00G26, sequence (Q8WTS1 whole entry, looked up): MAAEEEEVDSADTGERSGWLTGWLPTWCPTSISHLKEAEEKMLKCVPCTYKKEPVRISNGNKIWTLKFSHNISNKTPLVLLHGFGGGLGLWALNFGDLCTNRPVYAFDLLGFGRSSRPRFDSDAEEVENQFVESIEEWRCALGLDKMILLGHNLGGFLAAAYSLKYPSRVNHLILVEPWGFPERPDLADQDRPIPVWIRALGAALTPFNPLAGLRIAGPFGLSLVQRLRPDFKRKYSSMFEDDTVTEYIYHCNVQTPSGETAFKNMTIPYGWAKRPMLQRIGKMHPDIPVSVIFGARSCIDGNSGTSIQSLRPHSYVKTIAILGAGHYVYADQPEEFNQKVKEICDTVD
With `CCOC(=O)c1ccc(NC(=S)NCCc2ccccc2F)cc1`, the inhibition was inactive: -13.2%. In the case of `NC(=O)N1c2ccccc2CC(=O)c2ccccc21`, the inhibition is inactive: -2.58%. The result for `CC12CCC(C(=O)Nc3ccccc3Br)(C/C1=N\O)C2(C)C` (stereo unspecified) reads inactive: -6.37%. The result for `CC12CCC(C(=O)N3CCc4ccccc43)(CC1=O)C2(C)C` (stereo unspecified) reads inactive: -4.02%; that for `CC12COC3(C(=O)Nc4ccc(F)cc4)CC1CCC32C` (stereo unspecified), inactive: -5.49%.

In the case of `COc1ccc2c(c1)C=CC1(O2)N(CCO)c2ccccc2C1(C)C` (stereo unspecified), the inhibition was active: 50.9%. The result for `O=Cc1ccc(N2CCCCC2)cc1` reads inactive: 9.57%; that for `C[C@]12CC[C@H]3[C@@H](CCC4=CC(=O)CC[C@@]43C)[C@@H]1CC[C@@H]2C(=O)CO`, inactive: 3.56%. The result for `COc1cc(C=NCC2OCCc3ccccc32)cc(OC)c1` (stereo unspecified) reads inactive: -6.43%. The same measure for `COc1cc(NS(=O)(=O)c2ccc(N)cc2)nc(OC)n1`: inactive: -10.3%; for `O=C(O)c1cc(-c2ccc3c(c2)OCO3)nc2ccc(Br)cc12`: inactive: -1.26%. For `CC(C)c1ccc(OCc2ccc(C(=O)O)o2)cc1`, the inhibition is inactive: -1.94%.

On to `O=C(c1ccco1)N1CCCN(Cc2nc(-c3ccc4c(c3)OCO4)no2)CC1`, for which the inhibition was inactive: 9.36%. The same measure for `COc1ccc(C2=CC(=O)C=CC2=O)cc1`: active: 69.1%. Take `CCOC(=O)c1ccc(N2C(=O)C(CC(=O)NC)N(CCc3ccc(OC)c(OC)c3)C2=S)cc1` (stereo unspecified): the inhibition is inactive: -1.7%. The result for `CC(=O)CC(c1ccc([N+](=O)[O-])cc1)c1c(O)c2ccccc2oc1=O` (stereo unspecified) reads inactive: -0.46%; that for `CCCCCCCCNC(C)C(O)c1ccc(SC(C)C)cc1` (stereo unspecified), inactive: -31.6%; that for `c1ccc(SSc2ccccc2)cc1`, inactive: -5.71%.

For `COc1ccc2[nH]c(C)c(CN3CCC(C)CC3)c(=O)c2c1`, the inhibition was inactive: -4.66%. The same measure for `Cc1ccccc1C(=O)NCC(=O)O`: inactive: 3.06%; for `Clc1ccc2c(c1)[C@H]1OCC[C@H]1[C@@H](c1ccco1)N2`: inactive: 9.61%. The result for `COc1ccc2cc(C3(C)NC(=O)NC3=O)ccc2c1` (stereo unspecified) reads inactive: -13%; that for `Cc1ccccc1OCCSc1nc2ncnc(N)c2[nH]1`, inactive: -10.3%; that for `COc1ccc2nc(S(=O)Cc3ncc(C)c(OC)c3C)[nH]c2c1` (stereo unspecified), inactive: 27.6%. The result for `O=CNC1CCCc2c1[nH]c1ccc(Cl)cc21` (stereo unspecified) reads inactive: -3.92%; that for `CCCC(=O)O[C@]1(C(=O)CO)CC[C@H]2[C@@H]3CCC4=CC(=O)CC[C@]4(C)[C@H]3[C@@H](O)C[C@@]21C`, inactive: 2.01%. For `O=c1cc(CN2CCN(c3cccc(Cl)c3)CC2)c2cc(O)c(-c3ccccc3)cc2o1`, the inhibition was inactive: 3.36%. The result for `COc1ccc2oc(=O)c(-c3nc(C)cs3)cc2c1` reads inactive: -10.9%; that for `COc1cc2c(cc1OC)C1(CCCCC1)CN(C)C2`, inactive: 5.94%; that for `O=c1[nH]c(=O)n([C@H]2C[C@H](O)[C@@H](CO)O2)cc1C(F)(F)F`, inactive: -11.2%. The result for `CC(C)C(=O)Nc1ccc2c3c(cccc13)CC2` reads inactive: -5.83%. The result for `Cc1nnc(SCC2=C(C(=O)O)N3C(=O)[C@@H](NC(=O)Cn4cnnn4)[C@H]3SC2)s1` reads inactive: -0.16%. Take `C=C(C)COc1ccc(-c2n[nH]c(C)c2-c2ccc(OC)cc2)c(O)c1`: the inhibition is inactive: -1.33%. Regarding `COCCOC(=O)C1=C(C)NC(C)=C(C(=O)OC(C)C)C1c1cccc([N+](=O)[O-])c1` (stereo unspecified), the inhibition is inactive: 0.47%. The result for `CN1C(C(=O)Nc2ccccn2)=C(O)c2ccccc2S1(=O)=O` reads inactive: -1.31%.

Consider `COc1ccc2c(c1)C(=O)CC(c1ccccc1F)O2` (stereo unspecified), for which the inhibition is inactive: 0.11%. The result for `CC1(C)CC(c2csc(N)n2)CCO1` (stereo unspecified) reads inactive: -7.46%; that for `O=C(O)CCCNc1ccc(S(=O)(=O)Nc2ccccc2C(=O)O)cc1C(=O)O`, inactive: -8.17%. The result for `Cc1ccc2c(ccc(=S)n2C)c1` reads inactive: -5.06%; that for `CC1(C)[C@@H](O)CC[C@]2(C)[C@H]3C(=O)C=C4[C@@H]5C[C@@](C)(C(=O)O)CC[C@]5(C)CC[C@@]4(C)[C@]3(C)CC[C@@H]12`, inactive: 6.15%; that for `COc1cc(C(=O)NCCc2c[nH]c3ccccc23)ccc1OCc1c(C)noc1C`, inactive: 6.63%. The same measure for `CN(C)CCCNc1ncnc2c1cnn2-c1ccccc1`: inactive: -7.25%; for `COc1cc(NC(=O)COc2ccccc2)c(OC)cc1NC(C)=O`: inactive: -6.54%; for `CN1/C(=C\C=Nc2ccccc2)C(C)(C)c2ccccc21`: inactive: 14.1%.

On to `Cc1ccc(C)c(OCCCC(C)(C)C(=O)O)c1`, for which the inhibition was inactive: -9.25%. The result for `O=C(CCCN1CCC(O)(c2ccc(Cl)cc2)CC1)c1ccc(F)cc1` reads inactive: -0.3%; that for `O=C(NC(=S)Nc1nc(-c2ccccc2)cs1)c1ccco1`, inactive: 5.13%; that for `Cc1cccc2c1CC(C)(C)N/C2=C\C(N)=O`, inactive: 5.35%. Regarding `CC(C[N+](C)(C)C)OC(N)=O` (stereo unspecified), the inhibition is inactive: -0.78%. The same measure for `CN(C)CCN(Cc1ccc(Cl)cc1)c1ccccn1`: inactive: -5.33%; for `O=C(c1cccc2ccccc12)C1CCCN(C(=O)CCN2CCCO2)C1` (stereo unspecified): inactive: -5.83%; for `Cc1onc(-c2c(Cl)cccc2Cl)c1C(=O)NC1C(=O)N2C1SC(C)(C)C2C(=O)O` (stereo unspecified): inactive: -1.84%. As for `CN(CCCN1CCOCC1)Cc1cn(C)nc1-c1ccccc1F`, the inhibition was inactive: -0.55%. The result for `COc1ccc([C@@H]2Sc3ccccc3N(CCN(C)C)C(=O)[C@@H]2OC(C)=O)cc1` reads inactive: -6.83%; that for `COC(=O)[C@@H](N)CS`, active: 78.9%; that for `O=C(CS(=O)(=O)c1ccccc1)c1ccc2c(c1)OCCO2`, inactive: -11.9%. On to `Cc1cn([C@H]2C[C@H](N=[N+]=[N-])[C@@H](CO)O2)c(=O)[nH]c1=O`, for which the inhibition was inactive: 4.68%. The result for `CC(C)c1ccc2[nH]c3c(c2c1)CCCC3=O` reads inactive: 2.54%; that for `COC(=O)c1cc(Br)c(=O)n(CCc2ccc(O)cc2)c1`, inactive: -0.86%. The result for `Cc1ccc2c(c1)C(CCN)C(=O)N2Cc1ccccc1` (stereo unspecified) reads inactive: -12%. `CCOC(=O)C1NN=C(C(=O)c2ccccc2)C1c1ccc(Cl)cc1` (stereo unspecified): the inhibition is inactive: 2.66%. As to `CCOc1ccc(C(NC(C)=O)c2ccc(OC)c(OC)c2)cc1` (stereo unspecified), the inhibition is inactive: -7.04%.

For `CC1(c2ccccc2)CC(C)(C)N2C(=O)C(=O)c3cccc1c32` (stereo unspecified), the inhibition was active: 59.8%. The result for `CCOc1ccc2nc(N/C(N)=N/S(C)(=O)=O)nc(C)c2c1` reads inactive: 0.92%. The result for `C#CCN1C(=O)C(O)(CC(=O)c2ccc(OC)c(OC)c2)c2ccccc21` (stereo unspecified) reads inactive: 4.95%; that for `CCCCC1C(=O)N(c2ccccc2)N(c2ccccc2)C1=O`, inactive: 5.15%; that for `COc1ccccc1/C=C/C(=O)OCCN1CCOCC1`, inactive: -8.59%.

Take `COc1ccc(S(=O)(=O)NC(Cc2cnc[nH]2)C(=O)O)cc1` (stereo unspecified): the inhibition was inactive: 6.14%.

For `CC1/C(=C\c2ccc(Cl)cc2)C(=O)C2CC1C2(C)C` (stereo unspecified), the inhibition was inactive: -2.73%. The same measure for `CN(C)CCOc1ccccc1Cc1ccccc1`: inactive: 7.5%. For the compound `CC1=CC(=O)c2ccccc2C1=O`, the inhibition is inactive: 46.6%.

As for `CCCC(=O)Nc1ccc(OCC(O)CNC(C)C)c(C(C)=O)c1` (stereo unspecified), the inhibition is inactive: -3.06%.

With `CCn1c(C)cc2c(c1=O)C(c1ccccc1)C(C(=O)OC)=C(N)O2` (stereo unspecified), the inhibition was inactive: 0.01%. For the compound `NC(=O)c1c(-c2ccccc2)oc2ccc(O)cc12`, the inhibition was inactive: -5.91%. For the compound `COc1ccc(C2C3CCCCC3(O)CCN2C(=O)c2cccs2)cc1` (stereo unspecified), the inhibition is inactive: -2.4%.

As to `O=c1c(-c2ccccc2)c(O)c2cccc3c2n1CCC3`, the inhibition was inactive: -1.59%. The result for `COc1ccc(C2=NOC(COc3ccc4c(C)cc(=O)oc4c3)C2)c(OC)c1` (stereo unspecified) reads inactive: 27.1%; that for `CN(C)[C@@H]1C(=O)C(C(=O)NCN2CCCC2)=C(O)[C@@]2(O)C(=O)C3=C(O)c4c(O)cccc4[C@@](C)(O)C3CC12` (stereo partly specified), inactive: 11.2%. The result for `Cc1ccc(S(=O)(=O)NC(C(=O)Oc2cc3oc(=O)cc(C)c3cc2Cl)C(C)C)cc1` (stereo unspecified) reads inactive: 26.5%; that for `Cc1[nH]c2ccccc2c1C(=O)C(=O)NCc1ccco1`, inactive: -9.25%. The result for `Cc1cnc(N)c2c(=O)oc3ccccc3c12` reads inactive: -0.88%; that for `COCCN(CCOC)Cc1c(C)[nH]c2c(C)c(C)ccc2c1=O`, inactive: 6.95%; that for `CCC(=O)Oc1ccc(C(=O)Nc2ccc([N+](=O)[O-])cc2)cc1`, inactive: 7.96%. In the case of `CS(=O)(=O)c1cccc(C(=O)Oc2ccccc2)c1`, the inhibition is inactive: 3.1%. `CC(=O)OCC(=O)[C@@]12OC3(CCCC3)O[C@@H]1C[C@H]1[C@@H]3CCC4=CC(=O)C=C[C@]4(C)[C@@]3(F)[C@@H](O)C[C@@]12C`: the inhibition was inactive: 3.12%. As for `C=CCOC(=O)C1=C(C)NC(=O)NC1/C=C/c1ccccc1OC` (stereo unspecified), the inhibition was inactive: -9.8%.

For the compound `O=C(/C=C/c1ccc2c(c1)OCCCO2)c1ccc2ccccc2c1O`, the inhibition is inactive: 26.6%. Regarding `Nc1nnc(CSCc2ccc(Cl)cc2Cl)s1`, the inhibition is inactive: 3.53%. Regarding `C(=C/c1nccc2c1[nH]c1ccccc12)/c1ccc2c(c1)OCO2`, the inhibition is inactive: 9.67%.

As for `OCC1CCN(Cc2cn(Cc3ccccc3)nc2-c2cc3ccccc3o2)CC1`, the inhibition is inactive: 3.18%. Take `CC1(C)Cc2ccccc2-c2n[nH]c(=S)n21`: the inhibition was inactive: -12.1%. Consider `CC1CCCC(C)N1NC(=O)c1ccc(Cl)c(S(N)(=O)=O)c1` (stereo unspecified), for which the inhibition was inactive: -2.56%. The same measure for `Nc1nnc(-c2cccc(Cl)c2Cl)c(N)n1`: inactive: -8.24%; for `COc1ccccc1CCn1cnc2c3cc(C)ccc3n(C)c2c1=O`: inactive: 12.2%. The same measure for `COc1ccc2c(c1)c(=O)oc1cc3occ(C(C)(C)C)c3cc12`: inactive: -10.9%; for `CC(=O)/C=C/c1ccc(C)o1`: inactive: 23.3%.

Broadly, the inhibition is the relative decrease from the control value, in per cent.
